Structures are written as SMILES. The campaign covered roughly 310,000 compounds. About 14,000 (4.5%) showed an effect of 50% or more. The effect is printed as a negative number. Some of the results follow.
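Further: peak tail current of the secondary pulse compared with the same well before compound.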

In the assay the target is human ether-à-go-go-related gene (hERG) potassium channel (human, UniProt Q12809). The assay is described as follows: primary screen, population patch clamp on CHO cells stably expressing hERG.
Chain of human ether-à-go-go-related gene (hERG) potassium channel (Q12809 whole entry, looked up): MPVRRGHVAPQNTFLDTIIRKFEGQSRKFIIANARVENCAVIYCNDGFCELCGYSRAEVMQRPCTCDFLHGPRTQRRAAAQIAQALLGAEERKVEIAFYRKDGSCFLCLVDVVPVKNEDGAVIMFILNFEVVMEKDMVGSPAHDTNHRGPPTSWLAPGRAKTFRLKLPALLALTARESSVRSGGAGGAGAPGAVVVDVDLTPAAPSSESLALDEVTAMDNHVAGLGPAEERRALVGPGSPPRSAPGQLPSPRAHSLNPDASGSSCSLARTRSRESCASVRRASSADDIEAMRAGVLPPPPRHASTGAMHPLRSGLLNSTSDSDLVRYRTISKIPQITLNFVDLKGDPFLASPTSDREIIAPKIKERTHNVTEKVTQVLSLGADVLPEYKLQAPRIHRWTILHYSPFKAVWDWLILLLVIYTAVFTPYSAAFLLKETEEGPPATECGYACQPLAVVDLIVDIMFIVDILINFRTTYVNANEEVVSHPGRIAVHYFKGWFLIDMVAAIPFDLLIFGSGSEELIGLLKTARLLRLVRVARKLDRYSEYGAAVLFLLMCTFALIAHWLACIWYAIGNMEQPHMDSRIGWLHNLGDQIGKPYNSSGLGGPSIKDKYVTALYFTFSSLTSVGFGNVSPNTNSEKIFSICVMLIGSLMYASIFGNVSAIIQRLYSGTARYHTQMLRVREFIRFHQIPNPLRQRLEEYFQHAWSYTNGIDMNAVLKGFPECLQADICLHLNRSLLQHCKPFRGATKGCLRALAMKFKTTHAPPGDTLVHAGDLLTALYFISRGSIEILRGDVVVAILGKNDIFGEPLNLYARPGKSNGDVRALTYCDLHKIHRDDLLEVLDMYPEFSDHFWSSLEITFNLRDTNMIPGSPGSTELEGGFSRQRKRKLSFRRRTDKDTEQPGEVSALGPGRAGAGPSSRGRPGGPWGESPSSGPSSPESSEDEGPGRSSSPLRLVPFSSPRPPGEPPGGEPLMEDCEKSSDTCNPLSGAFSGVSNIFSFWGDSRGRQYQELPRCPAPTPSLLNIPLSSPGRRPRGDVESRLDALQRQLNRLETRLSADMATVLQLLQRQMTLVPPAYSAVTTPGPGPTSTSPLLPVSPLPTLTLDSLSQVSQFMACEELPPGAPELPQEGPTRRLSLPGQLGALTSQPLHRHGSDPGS
Consider `CS(=O)(=O)N1CCCC(C(=O)NCc2ccc(F)cc2Cl)C1` (centres unmarked), for which the “hERG current change (%, negative = inhibition) at 10uM” value is 2.22%.

As to `O=C1CCCC(O)=C1C1NCCc2ccccc21` (centres unmarked), the “hERG current change (%, negative = inhibition) at 10uM” value is reported as 19.1%. For `Cc1cccc(CNC(=O)CC2C(=O)NCCN2C2CCCC2)c1` (centres unmarked) the value was 16.5%; for `COc1ccc(N2CCN(C(=O)CSc3ccccc3N)CC2)cc1`, 3.07%. The same measure for `COc1ccc(C2(C(F)(F)F)NC(=O)N(C)C(=O)N2C)cc1` (centres unmarked): -5.97%; for `FC(F)(F)c1ccccc1N/N=C/c1cccnc1`: 12%; for `Cc1sc2ncnc(N3CCC(C(=O)Oc4cccc(Cl)c4Cl)CC3)c2c1C`: 9.66%.

Consider `Cc1ccc(OCc2nnc(SCC(=O)Nc3sc(C)c(C)c3C#N)n2C)cc1`, for which the “hERG current change (%, negative = inhibition) at 10uM” value turned out to be 12.8%.

With `Cc1ccc2[nH]c3c(N4CCc5ccccc5C4)ncnc3c2c1`, the “hERG current change (%, negative = inhibition) at 10uM” value is on record as -4.52%. For `CN(CC(=O)Nc1nccs1)S(=O)(=O)c1ccc(F)cc1` the value was -10.3%.

As for `COc1ccc(CN(CC(=O)NC2CCCC2)C(=O)CCC(=O)Nc2nc(C)cs2)cc1`, the “hERG current change (%, negative = inhibition) at 10uM” value was -31.2%. `Cc1ccc(-c2cc(C(F)F)n3ncc(C(=O)N4CCc5ccccc5C4)c3n2)cc1`: the “hERG current change (%, negative = inhibition) at 10uM” value turned out to be 3.49%. For `O=C(C(Sc1ccccc1)c1ccccc1)N1CCN(c2ccccc2)CC1` (centres unmarked) the value was 7.34%; for `Cc1ccc(Nc2nc(N)c([N+](=O)[O-])c(N3CCOCC3)n2)cc1C`, -13.9%. For `CC(=O)Nc1ccc(Oc2nc(C)cc(C)n2)cc1` the value was 2.99%; for `O=C(c1cccc(Br)c1)N1CCN(c2ccccn2)CC1`, -4.19%. The same measure for `O=C(CN1C(=O)CC(c2ccco2)Sc2ccccc21)NC1CCCCC1` (centres unmarked): -33.5%; for `CC(=O)NCCc1nc2ccccc2n1Cc1cccc(C)c1`: -5.94%. In the case of `NC(=O)NC(=O)C(Nc1ccc2c(c1)CCC2)c1ccccc1` (centres unmarked), the “hERG current change (%, negative = inhibition) at 10uM” value amounted to 20.2%. The same measure for `COc1ccc(-c2[nH]c(-c3ccc(C)cc3)nc2SCC(=O)NC2CCCC2)cc1`: -16.5%; for `COc1ccc(C(=O)Nc2cc([N+](=O)[O-])ccc2N2CCN(C)CC2)cc1`: -30.3%; for `C#CCn1c(=NC(=O)CSCC(=O)N2CCOCC2)sc2ccccc21`: -1.74%.

With `Cc1cccc(N2CCN(S(=O)(=O)c3ccc4c(c3)CCCN4C(=O)C3CCC3)CC2C)c1` (centres unmarked), the “hERG current change (%, negative = inhibition) at 10uM” value was 8.97%. The same measure for `Cc1nn(CC(=O)NCc2ccccc2Cl)c(C)c1[N+](=O)[O-]`: 6.99%; for `O=C(COc1ccc2c(-c3ccccc3)cc(=O)oc2c1)NCc1cccs1`: 15.2%. For `O=C(O)CN1C(=O)NC2(CCc3ccccc32)C1=O` (centres unmarked) the value was 8.91%; for `COc1ccc(-c2n[nH]c3c2CN(C(=O)c2ccc(F)cc2)CC3)cc1`, -33.5%; for `Cc1c(NC(=O)CSc2nc3c(cnn3-c3ccccc3)c(=O)[nH]2)c(=O)n(-c2ccccc2)n1C`, 19.3%.

For `Cc1cc(=O)oc2c(C(=O)/C=C\c3cccs3)c(O)ccc12`, the “hERG current change (%, negative = inhibition) at 10uM” value is listed as 11.1%. For `O=C(C1CCCCC1)N1CCN(c2ccnc3cc(Cl)ccc23)CC1` the value was -66.1%. For `Cc1ccccc1SCC(=O)OCC(=O)NCCNC(=O)COC(=O)CSc1ccccc1C` the value was -5.38%; for `O=S(=O)(NCc1ccc2c(c1)OCO2)c1ccccc1F`, 7.53%; for `Cc1ccc(-n2nnnc2SC(C)C(=O)Nc2ccccc2-c2ccccc2)cc1` (centres unmarked), 0.482%. The same measure for `COc1ccc(CCNc2oc(Cc3cccc4ccccc34)nc2C#N)cc1OC`: -1.3%; for `COC(=O)CC(NC(=S)N1CC2C[C@@H](C1)Cn1c2cccc1=O)C(=O)OC` (some centres unmarked): 10.7%. Turning to `COc1ccccc1OCC(=O)Sc1ccc(C)cc1`, the “hERG current change (%, negative = inhibition) at 10uM” value is recorded as 44.1%.

Consider `CCOc1ccc(OCCSc2nc(C)cc(=O)[nH]2)cc1`, for which the “hERG current change (%, negative = inhibition) at 10uM” value is -14.3%. For `Cc1nc2c(C#N)cnn2c2c1CCN2CC1CCCO1` (centres unmarked) the value was -51.7%; for `Cc1onc(-c2ccccc2Cl)c1C(=O)N1CCN(C(=O)c2ccco2)CC1`, -16%. For `CC(C)C(NC(=O)c1ccc(F)cc1)C(=O)NC1(C)CCS(=O)(=O)C1` (centres unmarked) the value was 1.84%; for `N#Cc1c(/N=C/N2CCOCC2)sc2c1CCCCC2`, -32.6%; for `CNC(=S)N/N=C/c1ccc(N2CCOCC2)s1`, 51.6%. The same measure for `CC(OC(=O)c1cccc(S(=O)(=O)N2CCCCCC2)c1)C(=O)Nc1ccc(S(N)(=O)=O)cc1` (centres unmarked): 12.7%.

`COc1ccc(-c2nc(N)ncc2-c2ccccc2OC)c(O)c1`: the “hERG current change (%, negative = inhibition) at 10uM” value was 14.1%. Take `Brc1ccc(CSc2ccc3nnc(-c4ccccn4)n3n2)cc1`: the “hERG current change (%, negative = inhibition) at 10uM” value was -67.1%. The same measure for `CC/C(=N/NC(=O)CCC(=O)Nc1ccccc1OC)c1ccccc1`: -1.67%; for `CCOC(=O)c1ccc(NC(=O)CSc2nc3ncccc3[nH]2)cc1`: -9.61%. For `Cc1cc(NC(=O)C2(c3ccccc3)CCCC2)no1` the value was 10.3%; for `Cc1nnc(NC2=NCCC2)o1`, 3.71%. For `COc1ccccc1C1CC(=O)Nc2cc3c(cc21)OCCO3` (centres unmarked) the value was 4.83%. `S=C(Nc1ccccc1)N1CCc2ccccc21`: the “hERG current change (%, negative = inhibition) at 10uM” value is -29.4%.

As for `O=C(Nc1cccc(N=Cc2cc(Cl)cc(Br)c2O)c1)c1ccco1`, the “hERG current change (%, negative = inhibition) at 10uM” value is on record as 3.97%. For `Cc1ccccc1-n1c([O-])c([C@@H](c2cc[nH+]cc2)c2c(O)n(-c3ccccc3C)c(=O)[nH]c2=O)c(=O)[nH]c1=O` the value was 16.1%; for `CCCOc1ccc(C(=O)CCC(=O)NNC(=O)Cn2nc(C)cc2C)cc1`, 11.3%. For `Cc1ccc(NC(=O)CNC(=O)c2ccco2)nc1`, the “hERG current change (%, negative = inhibition) at 10uM” value came out at 17.3%. For `O=C(CNc1cccc(C(F)(F)F)c1)N/N=C/c1cccc(Br)c1` the value was 18.5%. Take `COc1ccccc1N1C(=O)CCC1(C#N)c1ccc(Br)cc1` (centres unmarked): the “hERG current change (%, negative = inhibition) at 10uM” value is -11.2%. The same measure for `O=C(COC(=O)c1cc(F)cc(F)c1)NCCCc1ccccc1`: 13.3%; for `CCCCN(C(=O)NC(=O)Nc1ccccc1OC)S(C)(=O)=O`: -2.42%; for `CC(=O)c1c(C(C)=O)c(C)n(-c2ccc(O)cc2)c1C`: -5.11%. For `CCOC(=O)N1CCN(c2nc(-c3ccccc3)c3ccccc3n2)CC1` the value was 5.1%; for `CCOC(=O)c1cc(NC(=O)CC(C)(C)CC(=O)O)ccc1N1CCCCC1`, 11.8%; for `O=c1cc(-c2ccccc2)[nH]n1-c1ccc([N+](=O)[O-])cc1`, 6.67%. For `Cc1ccc(C)c(NC(=O)CC2Oc3ccccc3NC2=O)c1` (centres unmarked) the value was 8.97%.

Take `CCC/C=N/Nc1nnc(Cc2ccc(OC)c(OC)c2)c(=O)[nH]1`: the “hERG current change (%, negative = inhibition) at 10uM” value is on record as 27.2%. For `COc1ccc(CNC(=O)CN(C(=O)c2csnn2)c2ccccc2F)cc1` the value was 4.22%; for `C/C(N)=C(/C#N)C(=O)COC(=O)c1cc2c(s1)CCCC2`, -27.1%; for `CC(=O)Nc1ccc(C(=O)CSc2nnc(Cc3ccccc3)o2)cc1`, -7.75%. Take `CCOC(=O)c1ccc(NC(=O)CSc2nnc(C)n2-c2ccccc2)cc1`: the “hERG current change (%, negative = inhibition) at 10uM” value is -7.51%. The same measure for `O=C(N1CCCC1)C12CC3CC(CC(C3)C1)C2`: 3.47%. The same measure for `O=C(/C=C/c1ccco1)Nc1ccccc1N1CCOCC1`: 3.68%; for `O=C(N/N=C\C=C\c1ccc2c(c1)OCO2)C1COc2cc3ccccc3cc2O1` (centres unmarked): 3.33%; for `CCOC(=O)CN1C(=O)N[C@@H](CCc2ccccc2)[C@H](C(=O)OC)[C@H]1C`: 9.57%. Consider `COc1cc2c(=O)n(-c3ccc(C)cc3)c(=O)n(CC(=O)c3ccc4c(c3)OCO4)c2cc1OC`, for which the “hERG current change (%, negative = inhibition) at 10uM” value is on record as -0.013%.

In the case of `Cc1ccc(-c2csc(Cc3nc(-c4ccc5c(c4)CCC(=O)N5)cs3)n2)cc1`, the “hERG current change (%, negative = inhibition) at 10uM” value came out at 3.34%.

For `CCn1cc(C(=O)N[C@H](C(=O)NCCN2CCOCC2)C(C)C)c(=O)c2cc3c(cc21)OCO3`, the “hERG current change (%, negative = inhibition) at 10uM” value worked out at 18.2%. The same measure for `COc1ccc(CCC(=O)NCCS(=O)(=O)N2CCN(c3ccccc3OC)CC2)cc1`: -8.87%; for `COc1ccc(N2CCN(C(=O)C3CCCN(S(=O)(=O)c4ccc5c(c4)oc(=O)n5C)C3)CC2)cc1` (centres unmarked): 4.47%; for `CCOC(=O)c1ccccc1NC(=O)CN(c1ccccc1OC)S(C)(=O)=O`: 0.428%. Turning to `CN1C[C@H](CO)C=C2c3cccc4[nH]cc(c34)C[C@H]21`, the “hERG current change (%, negative = inhibition) at 10uM” value was found to be 4.32%. Take `CCOc1nc(CC(C)C)c2c(c1C#N)CC(C)(C)OC2`: the “hERG current change (%, negative = inhibition) at 10uM” value was determined as 1.14%. The same measure for `Cn1c(=O)oc2cc(S(=O)(=O)N3CCN(c4ccc(F)cc4)CC3)ccc21`: -12.5%; for `Cc1ccc(OCC(=O)Nc2ccc(Cl)cc2)c([N+](=O)[O-])n1`: -13.4%; for `COc1ccc(OC)c(C2C(C(=O)c3cccs3)=C(O)C(=O)N2CCN(C)C)c1` (centres unmarked): 13.3%. With `CN1CCN(S(=O)(=O)CC2(C)C3CCC2(C)C(=O)C3Br)CC1` (centres unmarked), the “hERG current change (%, negative = inhibition) at 10uM” value is 14.7%. For `CC1=CC(C)(C)Nc2ccccc21.Cl` the value was 12.1%. Regarding `COc1cccc(N2C(=O)C3CCCN3C2c2ccc(Cl)cc2)c1` (centres unmarked), the “hERG current change (%, negative = inhibition) at 10uM” value is on record as -1.05%. `Cc1cccc(OCC(=O)NCCNC(=O)c2cnccn2)c1`: the “hERG current change (%, negative = inhibition) at 10uM” value is 13.7%. The same measure for `O=C(CCl)NCCCN(C(=O)C(Cl)Cl)c1ccc([N+](=O)[O-])cc1`: -27.2%.

For the origin of these results see publication PMC4336329 (PLoS ONE, 2015).
